Source: PubChem BioAssay AID1159614 (National Center for Advancing Translational Sciences (NCATS), 2016)
Among all 45,000 compounds or so, about 65 (0.1%) were called active. Calls come from the whole dose curve; as a rule, active = well fitted activation curve with a large enough effect; inconclusive = small, poorly fitted or top-dose-only effect; inactive = no such curve, though single readings can be large or run the other way. Some of the results follow.

molecular target: Galactocerebrosidase (Homo sapiens) (UniProt P54803); experiment: A Novel Cell-Based Assay to Identify Small Molecules for B -Galactocerebrosidase; details: 145M-Twi-hGALC-G270D cells, HMU-beta-Gal fluorescence, 48 h; series mostly up to 57.5 µM; activation: at the top concentration; note: 0% is about no effect; nearly all actives have a fitted effect of over 65% in size
UniProt P54803, sequence (P54803 whole entry, looked up): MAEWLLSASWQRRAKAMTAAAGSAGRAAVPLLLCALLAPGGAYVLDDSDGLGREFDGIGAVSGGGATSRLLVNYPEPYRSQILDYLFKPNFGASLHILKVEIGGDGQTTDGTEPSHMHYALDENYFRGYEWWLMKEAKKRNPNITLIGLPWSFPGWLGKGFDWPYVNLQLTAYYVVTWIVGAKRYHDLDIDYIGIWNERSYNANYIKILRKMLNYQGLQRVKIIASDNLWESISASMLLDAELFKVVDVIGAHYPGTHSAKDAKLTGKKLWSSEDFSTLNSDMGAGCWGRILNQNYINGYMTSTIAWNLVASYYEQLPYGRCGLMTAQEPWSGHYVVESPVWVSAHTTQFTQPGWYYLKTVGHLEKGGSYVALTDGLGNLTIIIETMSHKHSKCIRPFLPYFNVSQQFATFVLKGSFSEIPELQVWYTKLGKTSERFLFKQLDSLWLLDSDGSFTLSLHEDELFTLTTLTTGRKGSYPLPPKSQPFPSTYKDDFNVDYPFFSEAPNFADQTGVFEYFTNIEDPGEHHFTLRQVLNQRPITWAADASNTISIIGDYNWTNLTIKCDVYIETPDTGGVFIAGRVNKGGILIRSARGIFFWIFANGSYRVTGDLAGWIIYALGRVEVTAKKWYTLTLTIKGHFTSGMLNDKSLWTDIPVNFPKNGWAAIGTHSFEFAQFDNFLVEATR
In short: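 qHTS, 1536-well; 145M-Twi-hGALC-G270D cells (WT line also made) in DMEM/F12 + 10% FBS; compound incubation on live cells; HMU-β-gal 0.1 mM final, pH 5.2, NaTC; carbonate stop; fluorescence increase = enhanced residual activity.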

activation, inactive:
COC(=O)c1c(NC(=O)CCCOc2cccc(C)c2)sc2c1CCC2 -12.4%
Cc1cc(O)c(C(c2cccc(F)c2)N2CCN(c3ccccc3)CC2)c(=O)n1Cc1ccco1 (stereo unspecified) -21.5%
COc1ccc(NC(=O)c2sc3nc4c(cc3c2N)CN(Cc2ccccc2)CC4)c(OC)c1 -21.8%
Cc1ccc(C)c(CN2C(=O)c3ccccc3S(=O)(=O)c3ccc(C(=O)OCC4CCCO4)cc32)c1 (stereo unspecified) -6.58%
COc1ccc(NC(=O)Cn2c(SCc3ccc(C)cc3)nc3cccnc32)cc1OC -14.3%
O=C1Nc2ccccc2Oc2cc(Oc3ccccc3)ccc21 -9.35%
COc1cc(NC(=O)c2cc3nc(-c4ccccc4)cc(-c4ccccc4)n3n2)c(OC)cc1Cl -16.3%
CC1CCN(c2nc3ccc(C(=O)NCc4ccc(Cl)cc4)cc3s2)CC1 -8.43%
COC(=O)c1ccc(OC)c(Cn2c(=O)n(-c3ccc(C)cc3)c(=O)c3c2cnn3C)c1 -15.9%
COc1ccc(C(=O)Nc2ccc3nc(SCC(=O)N4CCOCC4)sc3c2)cc1 -3.73%
COc1ccc(C2CC(=O)N(CC(=O)Nc3ccc(C(F)(F)F)cc3)c3ccccc3S2)cc1 (stereo unspecified) -15.9%
CCc1ccc(OCC(=O)NCC(c2ccc(OC)cc2)N2CCOCC2)cc1 (stereo unspecified) -1.4%
CCSc1nc(=O)c2c(n1C)NC(=O)CC2c1ccc(O)cc1OC (stereo unspecified) -11.2%
Cc1cccc(C)c1NC(=O)CN(C)S(=O)(=O)c1ccc2c(c1)n(C)c(=O)c(=O)n2C -8.47%
Cc1ccc2c(CNC3CCC(C)CC3)c(C(=O)O)n(Cc3cccc(F)c3)c2c1 (stereo unspecified) 7.48%
CCN(CC)CCNC(=O)c1ccc2c(c1)N(Cc1ccccc1)C(=O)c1ccccc1S2=O (stereo unspecified) 5.68%
CC(=O)c1cccc(NC(=O)Cn2c(C)c3cnn(-c4ccccc4)c(=O)c3c2C)c1 -6.05%
COc1ccc(-n2c(=O)c3sc4ccccc4c3n(Cc3ccccc3)c2=O)cc1 -11.7%
COc1cccc(CNC(=O)c2c3c(nc4ccccc24)C(=O)N(C2CCCCC2)C3)c1 -13.5%
Cn1cc(C(=O)NCc2ccccc2)c(=O)c2cc(S(=O)(=O)N3CCCCCC3)ccc21 -3.62%
O=C(Cn1c(=O)nc(-c2ccccc2)c2cc(Cl)ccc21)NCCCc1ccccc1 -13.6%
CCc1nn(CC(=O)NC2CC2)c(=O)c2cc3ccccc3n12 -17.7%
Cc1ccccc1Oc1nc2c(c(=O)n(C)c(=O)n2C)n1Cc1ccc(Br)cc1 -13.1%
Cc1ccc(C)c(CSc2nc3ccncc3n2Cc2nc(-c3ccccc3Cl)oc2C)c1 -4.74%
COC(=O)c1ccc(C(=O)OC)c(NC(=O)c2c(-c3ccccc3)c(-c3ccccc3)nn(C)c2=O)c1 5.66%
Cc1ccc2c(c1)nc(SCC(O)c1ccc(Br)cc1)n2C (stereo unspecified) -8.02%
Cn1c(=O)c2sccc2n2c(CCC(=O)NCc3ccccc3)nnc12 -8.34%
COc1ccc(N2CCN(Cc3nc4c(c(=O)[nH]c(=O)n4C)n3Cc3ccccc3)CC2)cc1 5.15%
CCC1CCCCN1C(=O)Cn1c(=O)n(CC2CCC(C(=O)NC)CC2)c(=O)c2sccc21 (stereo unspecified) -10.7%
CCCCc1ccc(Nc2ncnc3c2cnn3-c2ccc(C)cc2)cc1 3.09%
Cc1ccc(S(=O)Cc2nc(-c3ccc(C(=O)NC(C)c4ccccc4)cc3)oc2C)cc1 (stereo unspecified) -12.1%
COc1cc(OC)c(NC(=O)c2cc(S(=O)(=O)N3CCCC3)cn2C)cc1Cl -2.09%
CC(NC(=O)CSc1n[nH]c(-c2ccccc2)n1)c1nc2ccccc2n1C (stereo unspecified) -9.07%
O=C(Nc1ccc(OC(F)(F)F)cc1)NC1COc2ccccc2C1 (stereo unspecified) -5.21%
O=C(CCCn1c(=O)c2ccccc2n(CC(=O)Nc2ccc(F)cc2F)c1=O)NCc1ccccc1Cl -2.52%
O=C(NCc1ccc(F)cc1)c1cc2c(s1)-c1ccccc1SC2 -27%
CCCCOC(=O)c1ccc(NC(=O)/C(C#N)=C/c2ccc(-c3ccccc3)o2)cc1 -13.2%
COc1cc2c(=O)n(CCC(=O)NCC3CCCO3)c(=O)n(CC(=O)Nc3c(C)cccc3C)c2cc1OC (stereo unspecified) -26.3%
COc1cccc(CCNc2ncnc3c2nnn3C)c1 -20.9%
CN(C)c1ccc(CNC(=O)C(Cc2ccccc2)NS(=O)(=O)c2ccc3c(c2)oc(=O)n3C)cc1 (stereo unspecified) -12.4%
Cc1ccc(N(CC(=O)Nc2ccc(Br)c(C)c2)S(=O)(=O)c2cccs2)cc1 -11.8%
CCOc1ccc(CCNC(=O)C2Cc3ccccc3N2C(=O)CC)cc1OCC (stereo unspecified) -17.4%
Cc1ccc(-c2cc(C(=O)N3CCN(S(=O)(=O)c4ccc(Br)s4)CC3)[nH]n2)c(C)c1 -17.3%
CC(=O)c1ccc(NC(=O)CSc2ccc3nc(-c4ccccc4)cn3n2)cc1 -14.6%
Cc1ccc(C)c(NC(=O)Cn2c(=O)n(Cc3cccs3)c(=O)c3cccnc32)c1 -22.8%
COc1ccc(-c2cn3nc(N4CCC(C(=O)Nc5cc(Cl)ccc5OC)CC4)sc3n2)cc1 -8.14%
CC(C)(C)OC(=O)N1CCC(c2c(C(=O)N3CCN(c4ncccn4)CC3)cnn2-c2ccc(F)cc2F)CC1 8.77%
CCc1nnc(SCc2nc(-c3ccccc3)oc2C)c2cc3sccc3n12 -43.4%
CCc1ccc(CNC(=O)Cc2c(C(=O)O)c(C)cn2C)cc1 -5.59%
COc1ccc(C(=O)Nc2ccc(C(=O)OCc3cc(=O)n4nc(C(C)C)sc4n3)cc2)cc1 -10.3%
Cc1ccc(Cl)cc1NC(=O)/C(C#N)=C\c1cn(Cc2ccc(F)cc2)c2ccccc12 -21.6%
C[N+](C)(C)CCCCCC[N+](C)(C)C -9.48%
Fc1ccc(CNc2cc(-c3ccccc3)nc3nncn23)cc1 5.23%
Cc1ccccc1C(=O)Nc1ccc2nc(SCCOc3ccccc3)sc2c1 -2.56%
CCOC(=O)c1c(S(=O)(=O)NCC(=O)NCc2ccc(C)cc2)c(C)n(C)c1C -6.13%
COc1ccc(OC)c(NC(=O)C(CCSC)NS(=O)(=O)c2cccs2)c1 (stereo unspecified) -9.83%
Nc1c(C(=O)Nc2ccc(Cl)cc2F)sc2nc(-c3cccs3)ccc12 -8.41%
COc1ccc(-c2nc(SCC(=O)N3CCC(C)CC3)n[nH]2)cc1 -4.63%
COc1ccc(NC(=O)C(CC(C)C)NS(=O)(=O)c2ccc3c(c2)oc(=O)n3C)cc1Cl (stereo unspecified) -12.9%
COc1cccc(C2Nc3ccccc3-c3nnc(SCc4ccccc4)nc3O2)c1OC (stereo unspecified) -16.4%
O=C(Nc1ccc(F)c(Cl)c1)C1CCCN1S(=O)(=O)c1ccc(F)cc1 (stereo unspecified) -11.1%
